The source gives no read counts; variants with many changes may rest on few reads.
B1: LINE1-full (parent)
chain: UACGUAGGUGGUUUUCCCCUGAUAGUGCUAAGGGGGCCUGGAAGUUUGGACUGGGCAGAGCUCAACACAGCGUGGCAAAGUGGCUGUGGCUAGACUGCCUCUCUGGAUUCCUCGUCACUCAGCAGGGCAUCUCUGAGAGAAAUGCC

Variants of: B1
Test: self-cleavage, relative activity (ratio to wild type); higher = more cleavage; in vitro, sequencing; the parent is a self-cleaving ribozyme

| Variant | self-cleavage |
| --- | --- |
| U1A U26G A138G | 0.47 |
| U1A U29A A50G C118U | 0.76 |
| U1A U29C G32U | 0.66 |
| U1A U39C A117G A124U | 1.67 |
| U1A U45G U119C | 0 |
| U1A U46C A92G | 0.31 |
| U1A U46C U62C U81A | 0.12 |
| U1A U46C U85A | 0.3 |
| U1A U47A U62C A117G | 0 |
| U1A U47A U87C A117G A129G U132A | 0 |
| U1A U62C U73C A140G A141G U143G | 0 |
| U1A U62C U85A A124G | 0.15 |
| U1A U115A A117U A129G | 2.09 |
| U1A U115A U134C | 0.64 |
| U1C A2C A57C G74A A77G G105A | 0.07 |
| U1C A2G G34A A64C U112C A117C | 0 |
| U1C A2G U9A G97A U130C | 0.23 |
| U1C A2G U15A G72A C90U | 0.08 |
| U1C A2G U47C U119C | 0.74 |
| U1C A2U U20C A57G A69U A121U | 0.19 |
| U1C A6C U12C A50G | 0.43 |
| U1C A6G G34A A50G A77G | 1.2 |
| U1C A6G G74A U85C U112C | 0.29 |
| U1C A6G U14C G74A U85A U104A U115C U130C | 0 |

| Variant | self-cleavage |
| --- | --- |
| U1C A22G A64G | 0.22 |
| U1C A22G G36C A129G U132C | 1.15 |
| U1C A22G G72A U85A A141G | 0.1 |
| U1C A22U A43G U45C U115C | 0 |
| U1C A22U G32A U85C | 0.04 |
| U1C A22U U73A U91C U115C | 0.19 |
| U1C A24G A31U A65U | 0.54 |
| U1C A42G A67U A78G U81C | 0 |
| U1C A42U A141G | 0.58 |
| U1C A43G A65G A117G | 0 |
| U1C A43G U115A U143A | 0.62 |
| U1C A43U A141G | 0 |
| U1C A50G C113A A129G U132C | 0.5 |
| U1C A50G U115A | 1.39 |
| U1C A50U U104G | 0 |
| U1C A57G A64U A138G | 0.13 |
| U1C A57G U104C | 0.66 |
| U1C A57U A69G U96G | 0 |
| U1C A57U U62G A107G | 0 |
| U1C A59C A77G U130C | 1.62 |
| U1C A64G A69G | 0.13 |
| U1C A64U A78G C95U A129U | 0.04 |
| U1C A65C U134C A138G A142G | 0.19 |
| U1C A65G U100C U119C | 0 |

| Variant | self-cleavage |
| --- | --- |
| U1C A65G U130C | 0 |
| U1C A65U A94G | 0.18 |
| U1C A69U A79C U132C | 0 |
| U1C A77G U96A U134A | 0.14 |
| U1C A77G U102C U119C | 0.48 |
| U1C A79G U130A | 1.29 |
| U1C A117G A138G | 0.77 |
| U1C A124U A140G U143C | 0.83 |
| U1C A136G A140G | 1.26 |
| U1C C3G U14C U130A | 0.43 |
| U1C C16U U108C U132C | 0.78 |
| U1C C16U U109G A141G | 0.59 |
| U1C C18U U104C | 1.01 |
| U1C C19U U143A | 0.65 |
| U1C C37G U52A | 0.6 |
| U1C C38U A42G A117G A140G | 0 |
| U1C C38U U47C A136G A140G | 0.84 |
| U1C C56G A65U | 0.08 |
| U1C C63U A79G G114A U119A | 0.02 |
| U1C C66U A107G | 0.09 |
| U1C C71A C99A A117U C120U | 0.12 |
| U1C C90G U96C | 0.1 |
| U1C C103A U104A | 0.92 |
| U1C G4A U47A | 0.67 |

| Variant | self-cleavage |
| --- | --- |
| U1C G4C A42C U52A A69G A107G | 0 |
| U1C G7C G144A | 1.02 |
| U1C G8A A117G | 0.72 |
| U1C G10A A43G G83A | 0.27 |
| U1C G10A A43U U96C A121G | 0 |
| U1C G10A U29C A78G G80A | 1.94 |
| U1C G11A A77U | 1.1 |
| U1C G11A U47C A141G | 0.1 |
| U1C G21A A142G | 1.07 |
| U1C G21A U26A | 0.44 |
| U1C G32A A42G A57G A69U | 0.03 |
| U1C G32A A94U U102C | 0.09 |
| U1C G32A C51U A69G U85C U109A | 0.97 |
| U1C G32A U62C | 0.06 |
| U1C G32U A129G | 0.91 |
| U1C G36C U52C U134C G139A | 1.6 |
| U1C G40A U45A A57U U62C | 0 |
| U1C G44A U85A U91C | 0.19 |
| U1C U5C A124G | 0.2 |
| U1C U5C G74U | 1.09 |
| U1C U5C U29C G35A A42U A124U | 1.08 |
| U1C U5G C38U C98A A140G | 0.25 |
| U1C U9A A57G A138U | 1.1 |
| U1C U9A U100C | 0.69 |

| Variant | self-cleavage |
| --- | --- |
| U1C U9A U102C | 0.71 |
| U1C U9C A78G | 0.48 |
| U1C U9C U20C | 1.24 |
| U1C U9C U132A | 0.9 |
| U1C U12C A30G U102C | 0.97 |
| U1C U12C U134C | 0.84 |
| U1C U12G A64U | 0.48 |
| U1C U12G A129G | 1.46 |
| U1C U12G C116A U143C | 0.81 |
| U1C U13C A57G U91C A107G | 0 |
| U1C U13C A59U A65G | 0 |
| U1C U13C C37U U39C A64G | 0.16 |
| U1C U13C C84U A124U | 0.12 |
| U1C U13C G35U U52A C63U | 0.36 |
| U1C U13C G89C U132C A142G | 0.13 |
| U1C U13C U73G A92G A138G | 0 |
| U1C U13C U96C U115A | 0.07 |
| U1C U14A A121G | 0.83 |
| U1C U14A U52A A92G U100C | 0 |
| U1C U14C A22G G25U U96C U112A | 0.47 |
| U1C U14C C51U U100C C131A | 0.63 |
| U1C U14C G34A A43U U143C | 0.41 |
| U1C U14C G41A A67G A77G A140G | 0.31 |
| U1C U14C U20C A57U A78G G127A | 0.12 |

| Variant | self-cleavage |
| --- | --- |
| U1C U14C U23C U96C | 0.22 |
| U1C U14C U108C A124G | 1.72 |
| U1C U14G A136G A138G | 1.74 |
| U1C U15C A78G C98G U104C | 0 |
| U1C U15C G114A | 1.06 |
| U1C U15C G127A U132C | 0.69 |
| U1C U15C U26C | 0.88 |
| U1C U15C U26C U115C U119C | 0 |
| U1C U15C U115C A138G | 1 |
| U1C U20A U47C U96C C111U G122U | 0.12 |
| U1C U20C A94G | 0.1 |
| U1C U20C U100A | 0.36 |
| U1C U23C A64G | 0.48 |
| U1C U23C U47C A141G | 0.81 |
| U1C U26A A124C | 0.79 |
| U1C U26A C99A U102C | 0.42 |
| U1C U26A U47A U91C | 0.18 |
| U1C U26G U132C | 2.24 |
| U1C U29C A79U A142G | 1.26 |
| U1C U39A A67G U73C | 1.02 |
| U1C U39A A124G | 0.44 |
| U1C U39A U62C C71A | 0.03 |
| U1C U39C U115C | 0.56 |
| U1C U45A A65U U130C | 0.18 |

| Variant | self-cleavage |
| --- | --- |
| U1C U45C G80A A129C | 0.34 |
| U1C U45C U46C C71U U85C | 0.08 |
| U1C U45C U104A | 1 |
| U1C U46C A67G G88A U115C | 0.18 |
| U1C U46C A92U | 0.24 |
| U1C U46C C51U G89A A107U | 0.03 |
| U1C U46C U104C | 1.39 |
| U1C U47A G75A | 0.34 |
| U1C U47A U52A | 1.25 |
| U1C U47C C98U C133U | 0.16 |
| U1C U52C U81C U109C U134A | 0 |
| U1C U62C A69U U81A A92U U100C A141G | 0 |
| U1C U73A A124U | 1.29 |
| U1C U73A U81C U115C | 1.53 |
| U1C U73A U81G | 1.4 |
| U1C U81C U132C | 0.99 |
| U1C U81G A140G | 1.84 |
| U1C U87C A140C | 0.12 |
| U1C U87C U100A U109A U115C A121U | 0 |
| U1C U87G U112C | 0 |
| U1C U104A U143A | 0.46 |
| U1C U108C A142G | 1.01 |
| U1C U109A A129G | 0.55 |
